In PMC4336329 (PLoS ONE, 2015):
Screen size: about 310,000 compounds; about 2,200 (0.71%) showed an effect of 50% or more. Effects have a minus sign here. Some of the results follow.

Each molecule was assayed against human ether-à-go-go-related gene (hERG) potassium channel (human, UniProt Q12809) (assay: primary screen, population patch clamp on CHO cells stably expressing hERG).
Sequence of human ether-à-go-go-related gene (hERG) potassium channel (Q12809 whole entry, looked up): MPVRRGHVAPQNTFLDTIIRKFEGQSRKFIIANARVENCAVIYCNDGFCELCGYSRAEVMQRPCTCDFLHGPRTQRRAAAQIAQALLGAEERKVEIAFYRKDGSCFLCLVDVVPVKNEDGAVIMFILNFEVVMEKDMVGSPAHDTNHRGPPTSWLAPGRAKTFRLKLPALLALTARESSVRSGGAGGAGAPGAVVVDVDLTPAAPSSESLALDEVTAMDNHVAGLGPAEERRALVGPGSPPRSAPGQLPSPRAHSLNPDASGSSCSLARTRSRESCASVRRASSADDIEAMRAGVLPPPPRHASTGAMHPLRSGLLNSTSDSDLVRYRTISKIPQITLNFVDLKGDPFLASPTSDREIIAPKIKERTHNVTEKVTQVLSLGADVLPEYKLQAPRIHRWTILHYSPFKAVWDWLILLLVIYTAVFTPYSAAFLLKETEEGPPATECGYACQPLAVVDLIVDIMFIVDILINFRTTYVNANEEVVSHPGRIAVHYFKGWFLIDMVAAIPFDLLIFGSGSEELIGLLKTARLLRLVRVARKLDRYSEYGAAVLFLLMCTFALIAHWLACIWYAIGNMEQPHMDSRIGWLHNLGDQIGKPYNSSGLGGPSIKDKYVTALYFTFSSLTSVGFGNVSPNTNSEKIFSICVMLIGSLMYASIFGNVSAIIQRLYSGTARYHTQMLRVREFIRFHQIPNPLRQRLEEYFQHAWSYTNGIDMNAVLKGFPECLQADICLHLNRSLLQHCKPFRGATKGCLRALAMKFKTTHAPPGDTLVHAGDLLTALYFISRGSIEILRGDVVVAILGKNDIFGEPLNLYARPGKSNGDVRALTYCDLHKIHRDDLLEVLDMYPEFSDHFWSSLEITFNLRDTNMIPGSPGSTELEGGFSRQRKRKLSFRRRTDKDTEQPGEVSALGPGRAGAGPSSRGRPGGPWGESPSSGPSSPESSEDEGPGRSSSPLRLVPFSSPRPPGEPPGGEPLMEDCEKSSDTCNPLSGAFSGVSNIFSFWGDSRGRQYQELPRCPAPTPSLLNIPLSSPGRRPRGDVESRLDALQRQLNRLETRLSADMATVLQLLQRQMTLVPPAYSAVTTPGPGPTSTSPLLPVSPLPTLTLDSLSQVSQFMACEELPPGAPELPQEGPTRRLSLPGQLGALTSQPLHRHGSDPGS
In the case of `CC1(C)CC(NC(=S)NC(=O)c2cc(Br)ccc2Cl)CC(C)(C)N1`, the “hERG current change (%, negative = inhibition) at 1uM” value is reported as -2.52%. With `CN1/C(=C\C=C2\N=C(c3ccc(F)cc3)OC2=O)C(C)(C)c2ccccc21` the “hERG current change (%, negative = inhibition) at 1uM” value was 3.54%. For `CN(C(=O)Cn1cc(C(F)(F)F)cc(Cl)c1=O)C1CCS(=O)(=O)C1` (centres unmarked), the “hERG current change (%, negative = inhibition) at 1uM” value was 11.9%. In the case of `CC(=O)N1CCN(c2ccc(NC(=O)C(C)Oc3ccc(Cl)cc3Cl)cc2)CC1` (centres unmarked), the “hERG current change (%, negative = inhibition) at 1uM” value is reported as 1.03%. For `Cc1noc(C)c1S(=O)(=O)N1CCN(C(c2ccccc2)c2ccc(Cl)cc2)CC1` (centres unmarked), the “hERG current change (%, negative = inhibition) at 1uM” value was -0.0312%. In the case of `CCCCC(=O)Oc1c(S(=O)(=O)c2ccccc2)c(C)nn1C(C)(C)C`, the “hERG current change (%, negative = inhibition) at 1uM” value is reported as 12.9%. In the case of `CN(C(=O)COC(=O)CNC(=O)c1ccc2ccccc2c1)c1c(N)n(Cc2ccccc2)c(=O)[nH]c1=O`, the “hERG current change (%, negative = inhibition) at 1uM” value is reported as -3.15%. With `N#C/C=C(/c1ccc(F)cc1)N1CCOCC1` the “hERG current change (%, negative = inhibition) at 1uM” value was 5.24%. With `O=C(Cc1ccccc1F)NC1CCSc2ccccc21` (centres unmarked) the “hERG current change (%, negative = inhibition) at 1uM” value was 14.1%. For `COc1cccc2cc(-c3nnc(-c4ccccc4)o3)c(=O)oc12`, the “hERG current change (%, negative = inhibition) at 1uM” value was 5.07%. For `O=C(Nc1cccc(S(=O)(=O)N2CCCCC2)c1)C1CCC1`, the “hERG current change (%, negative = inhibition) at 1uM” value was 14.7%. With `COc1ccccc1CN1C(=O)CCC1(C)C(=O)NCc1cccnc1` (centres unmarked) the “hERG current change (%, negative = inhibition) at 1uM” value was 5.57%. With `COc1ccc(/C=N/NC(=O)c2cccc(Br)c2)cc1Cn1cc(Cl)cn1` the “hERG current change (%, negative = inhibition) at 1uM” value was 13.4%. With `CCN=C1SCC(=O)N1c1ccc(OC)cc1` the “hERG current change (%, negative = inhibition) at 1uM” value was 10.9%. `COc1cccc(OCc2nc(-c3ccc(Br)o3)no2)c1` was tested, and the “hERG current change (%, negative = inhibition) at 1uM” value was 5.48%. `C[C@H]1O[C@@H](O[C@H]2[C@@H](O)C[C@H](O[C@H]3[C@@H](O)C[C@H](O[C@H]4CC[C@@]5(C)[C@H](CC[C@@H]6[C@@H]5C[C@@H](O)[C@]5(C)[C@@H](C7=CC(=O)OC7)CC[C@]65O)C4)O[C@@H]3C)O[C@@H]2C)C[C@H](O)[C@@H]1O` was tested, and the “hERG current change (%, negative = inhibition) at 1uM” value was 12.8%. In the case of `Cc1c(Cl)cccc1NC(=O)CSc1ccc(-c2cccnc2)nn1`, the “hERG current change (%, negative = inhibition) at 1uM” value is reported as 13.4%. In the case of `CCOC(=O)c1sc2nc(-c3ccco3)c3c(c2c1N)CC(C)(C)OC3`, the “hERG current change (%, negative = inhibition) at 1uM” value is reported as 10.9%. With `O=C(CN(Cc1ccccc1)S(=O)(=O)c1ccccc1)N/N=C/c1ccc2c(c1)OCO2` the “hERG current change (%, negative = inhibition) at 1uM” value was 10.8%. `O=C(CN(C(=O)c1ccccc1)N1C(=O)CCC1=O)c1cccs1` was tested, and the “hERG current change (%, negative = inhibition) at 1uM” value was 9.66%. For `COc1cc(NC(=O)Cc2cccc3ccccc23)c(C(=O)O)cc1OC`, the “hERG current change (%, negative = inhibition) at 1uM” value was 15.1%. For `NC(=O)C1CCN(C(=O)Cc2ccc(-c3ccccc3)cc2)CC1`, the “hERG current change (%, negative = inhibition) at 1uM” value was 13.1%. With `Cc1ccc2nc(Nc3ccc4[nH]c(=O)[nH]c4c3)c(-n3nc(C)cc3C)nc2c1` the “hERG current change (%, negative = inhibition) at 1uM” value was 12.3%. In the case of `CN(C(=O)c1ccccc1C(=O)OCC(=O)c1ccccc1)c1ccccc1`, the “hERG current change (%, negative = inhibition) at 1uM” value is reported as 7.4%. With `NS(=O)(=O)c1ccc(Nc2c([N+](=O)[O-])cncc2[N+](=O)[O-])cc1` the “hERG current change (%, negative = inhibition) at 1uM” value was 11.7%. For `Cc1ccc(SCCNC(=O)c2ccccc2C)cc1`, the “hERG current change (%, negative = inhibition) at 1uM” value was 13.4%. `O=C(c1cnn(C(=O)c2cccc(S(=O)(=O)N3CCOCC3)c2)c1)c1ccccc1O` was tested, and the “hERG current change (%, negative = inhibition) at 1uM” value was 2.5%. For `COc1cccc(-n2c(SCC(=O)NCc3ccco3)nnc2-c2c[nH]c3ccccc23)c1`, the “hERG current change (%, negative = inhibition) at 1uM” value was -12.8%. `Cc1cc(C=C2C(=O)c3ccccc3C2=O)c(C)n1-c1cccc(C(=O)O)c1` was tested, and the “hERG current change (%, negative = inhibition) at 1uM” value was 10.8%. For `CC1(C)CC(=O)C(C(=S)Nc2ccc(F)cc2)=C(NCCN2CCOCC2)C1`, the “hERG current change (%, negative = inhibition) at 1uM” value was 9.49%. In the case of `O=S(=O)(c1ccc(-n2cnnn2)cc1)N1CCN(c2ccccc2F)CC1`, the “hERG current change (%, negative = inhibition) at 1uM” value is reported as 13.8%. For `CCOC(=O)N1CCN(S(=O)(=O)N2CCCC(C(=O)NCCc3ccccc3)C2)CC1` (centres unmarked), the “hERG current change (%, negative = inhibition) at 1uM” value was 6.31%. With `O=S(=O)(c1ccc(Cl)cc1)c1ccc(Cl)cc1` the “hERG current change (%, negative = inhibition) at 1uM” value was 11.1%. `CSc1ccccc1-c1nnc(-c2ccc(Cl)c(Cl)c2)o1` was tested, and the “hERG current change (%, negative = inhibition) at 1uM” value was 11.7%. `Cc1cccc(N2CCN(c3ccc4cc(S(=O)(=O)N5CCCCC5)ccc4n3)CC2C)c1` (centres unmarked) was tested, and the “hERG current change (%, negative = inhibition) at 1uM” value was 8.5%. In the case of `N#CC1=C(N)SC(C(=O)c2ccccc2)C1c1cccs1` (centres unmarked), the “hERG current change (%, negative = inhibition) at 1uM” value is reported as 12.7%. In the case of `CC(NC(=O)C(=O)N1CCCCC1)C(c1cccs1)N1CCN(c2ccccc2F)CC1` (centres unmarked), the “hERG current change (%, negative = inhibition) at 1uM” value is reported as 3.25%. For `O=C(COc1ccc(F)cc1)N/N=C/c1cccc2cccnc12`, the “hERG current change (%, negative = inhibition) at 1uM” value was 12.7%. With `COC(=O)N=Nc1c(O)n(Cc2ccccc2)c2ccccc12` the “hERG current change (%, negative = inhibition) at 1uM” value was -1.9%. In the case of `COc1ccc(CCNC(=O)c2cc(C(=O)c3cc(C)ccc3O)cn(CCc3ccc(OC)cc3)c2=O)cc1`, the “hERG current change (%, negative = inhibition) at 1uM” value is reported as 6.89%. `Fc1ccc(CNCc2cccc(Br)c2)cc1` was tested, and the “hERG current change (%, negative = inhibition) at 1uM” value was 28%. In the case of `COc1ccc(-c2nc3n(c(=O)c2C#N)CCS3)c(OC)c1`, the “hERG current change (%, negative = inhibition) at 1uM” value is reported as 12.2%. For `COC(=O)CSc1[nH]c(=O)cc(C)c1C#N`, the “hERG current change (%, negative = inhibition) at 1uM” value was 18.6%. `O=C(O)CCC(=O)NNC(=O)c1ccc(Br)cc1` was tested, and the “hERG current change (%, negative = inhibition) at 1uM” value was 5.87%. In the case of `O=C(OCC(=O)N1CCc2ccccc21)c1cncc(Br)c1`, the “hERG current change (%, negative = inhibition) at 1uM” value is reported as 9.86%. For `CN(C)c1oc(COc2ccccc2F)nc1C#N`, the “hERG current change (%, negative = inhibition) at 1uM” value was 8.75%. With `CN(CCO)Cc1csc2ccc(Br)cc12.Cl` the “hERG current change (%, negative = inhibition) at 1uM” value was 5.84%. In the case of `c1ccc(-c2ncc3c(ccc4ccccc43)n2)cc1`, the “hERG current change (%, negative = inhibition) at 1uM” value is reported as 5.48%. `O=C(OCc1nnc(-c2ccccc2)o1)c1ccc(S(=O)(=O)NCc2ccco2)cc1` was tested, and the “hERG current change (%, negative = inhibition) at 1uM” value was -1.4%. `COc1cccc(NC(=O)Nc2nnc(Cc3ccc(OC)c(OC)c3)s2)c1` was tested, and the “hERG current change (%, negative = inhibition) at 1uM” value was 13.1%. In the case of `COc1ccc(OC)c(C2C(C(=O)c3ccc(C)o3)=C(O)C(=O)N2CCCN2CCOCC2)c1` (centres unmarked), the “hERG current change (%, negative = inhibition) at 1uM” value is reported as 8.89%. `C/C=C(\C)C(=O)O[C@H](c1cc2ccc(=O)oc2cc1OC)[C@@H](O)C(C)(C)O` was tested, and the “hERG current change (%, negative = inhibition) at 1uM” value was 10.6%. For `O=C(Nc1nc2ccccc2[nH]1)NC1CCCCC1`, the “hERG current change (%, negative = inhibition) at 1uM” value was 9.76%.
